# Data from the supplement of paper PMC10185492.
# This is one part of the list. Read counts after selection give these values, which scatter widely.
# Tested on: SARS-CoV-2 3CLpro (nsp5)
# Assay: substrate phage enrichment score (protease-eluted vs HEPES control, +1 offset) (ratio); higher = better cleaved substrate
# Settings: selection round: 4; protease elution time: 15 min
# Experimental: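 Random heptapeptide substrate phage display (M13 pIII fusion, heptapeptide between an N-terminal biotinylated AviTag GLNDIFEAQKIEWHE and pIII; phages immobilised on streptavidin) eluted by cleavage with 50 nM protease in 20 mM HEPES at 37 °C. Selected phages were NGS sequenced, and the enrichment score is (reads in protease sample + 1)/(reads in HEPES blank-selection control + 1).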
row,Substance,substrate phage enrichment score
1,AYISTQT,> 46
2,TQCTCVP,> 25
3,RLNFKGY,0.0339
4,QCPGDRP,> 26
5,YAAAHHH,0.628
6,AESNSVP,2.41
7,ATGGRRC,> 42
8,ACRCEIQ,> 92
9,STKEADQ,2
10,ACRRNLT,> 50
11,TTAVSGH,8
12,SSAKEIP,> 24
13,RHFQGGS,1.9
14,GWSAEHR,0.636
15,GVRPHII,0.857
16,HTTNHEC,> 22
17,SAPQANP,0.257
18,SAAAHHN,1.04
19,RRQASQP,1.96
20,HLEQPFN,> 85
21,QSLDRSR,> 24
22,NGACPCG,> 28
23,SDAAAHH,0.04
24,SIPVYSR,> 28

row,Substance,substrate phage enrichment score
1,HSQTPSE,2
2,RPGDSPS,0.562
3,CPCKHNP,1.2
4,KTPSSLM,4.33
5,CQRDTSG,> 21
6,NEAAHHH,0.634
7,SAAAPHQ,2.02
8,KTHNTTR,6.33
9,IQNRVVQ,0.533
10,CAPSLQG,> 27
11,SGGSAAA,0.368
12,FGVNPYY,0.25
13,LRGCSLR,13.5
14,EAHTGTP,1.56
15,IGLPRER,0.179
16,SSSTSTG,> 22
17,QGTHTFL,5.5
18,LTQVNQR,3
19,SLTIFQG,2.61
20,GAPAHHH,2.5
21,QAMGSKS,> 73
22,IHHHHGA,0.667
23,SLSGYYR,> 27
24,RNHSTKS,2.07

row,Substance,substrate phage enrichment score
1,SRHTELQ,> 23
2,APLPVLQ,> 23
3,VSRVYEG,2.07
4,KSGTEYF,3
5,QPYHIDR,7.11
6,DVEVSSR,> 21
7,RCVQVQG,> 31
8,YGEGTLS,2.83
9,RATTKLQ,> 208
10,GIRPPKM,> 23
11,VTNPRYG,> 35
12,KTDGAQR,1.67
13,IPAAHHH,1.18
14,LQAHLRC,1.56
15,SGDLKPA,1.43
16,RTSGSVK,> 77
17,NSYTELQ,> 59
18,PRDTRDS,> 27
19,KYTEPSN,> 49
20,PCCSRLQ,35.5
21,RYWAQLQ,> 21
22,YNSAAHH,0.294
23,AHNYSPR,6
24,TATAHPQ,> 41

row,Substance,substrate phage enrichment score
1,TQCKYVG,1.46
2,RRCVARS,0.911
3,SAVAHHH,0.571
4,CAPVHDR,> 51
5,TGPSFLQ,> 53
6,SQGKSNL,1.09
7,GALSSPR,9
8,ATGTDMH,1
9,RADAASQ,0.769
10,ELLPGSL,0.481
11,SVWNTQL,21.2
12,LSCMRVR,0.444
13,LQRAERR,> 23
14,YEAAHHH,0.6
15,AVSCQHD,1.5
16,GNQRVQR,0.929
17,PTHVGTM,> 25
18,NFQGGSA,1.18
19,NDNGKTW,5.86
20,SKNATCI,1.69
21,QHTATPE,> 22
22,NLNAHLQ,39
23,SENQSMR,14.2
24,SKAAHHH,0.71

row,Substance,substrate phage enrichment score
1,DGSAAAH,0.714
2,MQSHNQL,> 70
3,SQFPSNR,> 29
4,EPSFQGG,> 72
5,GMRTQVQ,10
6,SQLYFQG,0.625
7,MTPGSQY,8.4
8,HMAAHHH,1
9,SQCAPLK,> 40
10,IKYPRLQ,23
11,AASIILQ,21
12,KSHLQPH,0.833
13,VRGLTDC,> 27
14,GSSSELQ,10.7
15,TSQIQFQ,> 36
16,DQKQGAR,2.82
17,PTYDMNL,1.75
18,RAAWQSR,1.18
19,RSSVNPA,0.149
20,RERQFCD,1.61
21,TTGVSRQ,> 90
22,SPSGAKS,> 23
23,DRGCILN,> 43
24,CRDVTRM,0.25

row,Substance,substrate phage enrichment score
1,NDVPVRN,> 21
2,RIGGQQA,7.67
3,LCSSAPD,2.71
4,SAVWSPG,1.37
5,MQNQHDL,10
6,SDGLPAE,> 70
7,WQHKSRQ,4.5
8,VNKAGIS,> 30
9,VRTEDAW,> 38
10,CDLNFQG,> 35
11,WHNGSSW,2.62
12,SVLQSAH,> 25
13,SCWTSAK,> 25
14,RASLLHS,> 29
15,KCNSQEN,> 81
16,CVPTKHR,11
17,HYKGMEW,1.33
18,TSSYSRA,0.417
19,AQPNAGQ,16
20,VSGPPGH,0.0938
21,ERHEPTF,> 59
22,THRGAPR,> 24
23,CAETAKE,0.75
24,EASTWGA,2.27

row,Substance,substrate phage enrichment score
1,RLYFQGG,0.681
2,PTEMSNQ,> 63
3,CSSNLMQ,> 22
4,QPLITPG,3.12
5,IEAAHHH,0.791
6,TTCEYGS,> 36
7,CGVEARS,0.421
8,GVAAHHH,0.609
9,MQCQSPR,0.286
10,TYHLTDQ,3.58
11,PCGVLLF,0.087
12,ASSAKVS,4.22
13,NAQESRL,0.441
14,LKYLEGQ,0.846
15,CAAAHHN,0.796
16,STLGGTT,1.56
17,CSVEGHS,13
18,RAAAHQH,1.45
19,SSASAAE,> 27
20,WEEYTTN,> 24
21,ATHVLNQ,0.5
22,GTAVLHC,> 28
23,AHCPLRV,2.29
24,TKAQEKA,7.9

row,Substance,substrate phage enrichment score
1,CREPIYR,1.88
2,KNHTTKQ,17
3,KEVRSPP,> 25
4,TECRPGQ,> 38
5,RRTILHA,> 52
6,QARLQAC,> 95
7,CPKGELT,1.86
8,QQQGSAE,0.812
9,ELFAYPQ,> 83
10,FQCWCAE,> 27
11,NGVCMTH,> 26
12,TQINAET,0.211
13,DKSGLTA,2.25
14,EFHSQAT,9.86
15,AAGTGEC,> 24
16,ATRQRLT,> 27
17,SRSSQKQ,> 24
18,VAASPAG,1.93
19,ASYESAT,2.62
20,STVERTM,> 44
21,GMPTWNR,2
22,HGSQHNG,1.63
23,SMNSGGP,3.8
24,QRSTCPK,0.967

row,Substance,substrate phage enrichment score
1,TSYPQAR,> 23
2,TQGGSAA,1.44
3,CLEQGNY,1.7
4,SRTYLQS,13.5
5,VRNDGTT,> 22
6,MGETGLH,0.0833
7,GTRWNPT,2.3
8,AHVPPLS,0.643
9,SERPLSG,0.917
10,TNRALIT,5.18
11,STTAHHH,0.788
12,PHCAAAH,4.4
13,CFRTGNI,> 26
14,QSSCGQG,4.3
15,SKISGCR,> 31
16,KSRERPQ,0.48
17,VCSGNRF,3.16
18,EYTQDRG,> 32
19,AHHHHHH,1.64
20,DHTVLQC,> 59
21,RSARLHC,4.5
22,TTLTPQR,> 22
23,ATHNDMR,0.265
24,ANATPVG,2.14

row,Substance,substrate phage enrichment score
1,CDAKTGT,26.5
2,SSDANCS,> 50
3,VGAVRGT,1.38
4,PERVRQP,1.4
5,EPAPDFW,11.5
6,DVTTTWQ,10.5
7,TSRPCAG,5.67
8,ARKDVAL,2.29
9,QYAKDRE,5.43
10,GLMSSGV,2.62
11,STRRDYG,> 31
12,MRSTSLQ,> 90
13,PSLHSAG,> 23
14,AHTKSEK,> 31
15,NSRHHHH,> 21
16,APAHHHH,1.33
17,KGAAQNG,> 30
18,CPSSLYG,8.67
19,QLNFQGG,3.8
20,HCYHDQR,1
21,ATRQEEH,0.714
22,TPALQSY,11
23,QVRGQNR,0.846
24,CNAGRLT,2.29

row,Substance,substrate phage enrichment score
1,WRSSATK,> 28
2,PLLYQPK,1
3,PTAHHHH,0.244
4,SHNVAPR,> 21
5,LFEWHSP,1.5
6,ANLQSMH,> 34
7,RYSPSTV,0.533
8,PDAAHHH,1.94
9,TESKCYP,> 95
10,HTQRCQA,> 23
11,CTQDLTG,0.087
12,APVTADQ,0.316
13,KRHECPC,4.33
14,CKSKSEN,1.93
15,CATGRLS,0.263
16,STSFAPG,0.225
